Among the data in PubChem BioAssay (NCI) are GI50 and TGI values, retold here.

By GI50 is commonly meant the concentration giving 50% growth inhibition. What is called TGI is the concentration at which net growth stops. Low readings indicate greater sensitivity of the cells, high ones lower sensitivity of the cells.

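In this assay, cells in 96-well plates receive the compound at five concentrations for 48 hours. Endpoints are linearly interpolated between the surrounding concentrations. GI50 marks 50% less growth. The concentration for full growth arrest is given as TGI.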

In the assay the test system is NCI-H322M lung. Put plainly: DTP human tumour cell line panel, 48 h.

Regarding `CC(=O)O[C@H](C[C@H](C(C)C)N(C)C(=O)[C@@H](NC(=O)[C@H]1CCCCN1C)C(C)C)c1nc(C(=O)N[C@@H](Cc2ccccc2)C[C@H](C)C(=O)O)c(C)s1`, the GI50 was under 0.0025 µM and the TGI is over 25 µM.

Take `CCc1ccc(C2=C/C(=C/c3ccc(Cl)cc3)C(=O)N2CCc2ccc(S(N)(=O)=O)cc2)cc1`: the GI50 is 2.83 µM and the TGI stood at 9.63 µM.

`C[C@]12CCC3c4ccc(OC(=O)c5ccccc5)cc4CC[C@H]3C1CC[C@@H]2OC(=O)C12OC1CCC2=O` (some centres undefined) came in with a TGI of 13.7 µM.

For `CN(CCc1ccc(Br)cc1)CCN1CCCCC1`, the TGI is over 100 µM.

`COc1ccc(-c2coc3ncnc(N)c23)cc1`: the GI50 is over 25 µM and the TGI was over 25 µM.

In the case of `O=c1ncc(-c2ccc(C(F)(F)F)cc2)c(NC2CCCCCC2)[nH]1`, the GI50 is 28.2 µM and the TGI is 79.1 µM.

Regarding `O=C1CC2[C@@H](N3CCCC3)CCC(N1Cc1ccccc1)C2(O)O` (some centres undefined), the TGI is over 100 µM.

Compound `CNC(=O)Nc1cc2c3c(c1)CCCN3CCC2` registered a TGI of over 10 µM.

As for `CS(=O)(=O)CCNCc1ccc(-c2ccc3ncnc(Nc4ccc(OCc5ccccc5)c(C(F)(F)F)c4)c3c2)o1`, the GI50 is 8.67 µM and the TGI is over 25 µM.

The compound `CCSC(=Nc1ccccc1)SC` yielded a TGI of over 100 µM.

As for `OCCN1CCN(CCO)Cc2ccccc2OCCOc2ccccc2C1`, the TGI is over 100 µM.

The compound `CC(=O)c1ccc(-c2oc(-c3ccccc3)cc2-c2ccc3c(c2)OCO3)s1` had a TGI of over 100 µM.

Regarding `CCOC(=O)C12CCCC1(O)N(NC(=O)c1cccc(Cl)c1)C(C)=C2C(=O)OC` (centres undefined), the TGI is over 100 µM.

The compound `Cc1nc(NC(=S)NC(=O)c2ccc(Cl)c(Cl)c2)sc1C(=O)/C=C/c1ccccc1[N+](=O)[O-]` showed a TGI of over 100 µM.

As for `Cc1cc(NC(=O)c2ccc(NS(=O)(=O)CCO)cc2N2CCC3(CC2)CC3)nc(N2CCC(F)(F)CC2)n1`, the GI50 was 13.6 µM and the TGI was found to be 26.8 µM.

Compound `COc1cc(C(=O)C/C(CCC(=O)Nc2ccccc2[N+](=O)[O-])=N\NC(=O)C(N)=O)ccc1O` returned a TGI of over 100 µM.

For `COC(=O)c1ccccc1C1CN=NC12Cc1c(C)cc(C)cc1C2=O` (centres undefined), the TGI is over 100 µM.

Turning to `CC1CC(N)=Nc2ccccc2N1Cc1ccccc1` (centres undefined), the TGI was over 100 µM.

The compound `CCCC(OCC)(OCC)OCC` yielded a TGI of over 100 µM.

In the case of `C/C(=C\c1ccn(-c2ccc(N)c(C(F)(F)F)c2)n1)[C@@H]1C[C@@H]2O[C@]2(C)CCC[C@H](C)[C@H](O)[C@@H](C)C(=O)C(C)(C)[C@@H](O)CC(=O)O1`, the GI50 was 0.0153 µM and the concentration for total growth inhibition (TGI) is over 32.5 µM.

`COc1ccccc1/C=C/C(=O)c1sc(-c2cccnc2)nc1C` gave a TGI of over 100 µM.

On to `CC(N)Cc1cccc(C(F)(F)F)c1` (centres undefined), for which the TGI is over 100 µM.
